PubChem BioAssay (NCI)
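48-hour exposure; five concentrations; linearly interpolated endpoints. GI50 = concentration required for 50% inhibition of growth. TGI: concentration producing complete growth inhibition.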

System: NCI-H322M lung
Test: NCI anticancer screen, dose series, 48 h

Row | Structure (SMILES) | GI50 [µM] | TGI [µM]
1 | COCOc1cc2c(=O)c(C)c(C(=O)N[C@@H](Cc3ccccc3)C(O)C(=O)NCc3ccccc3)oc2cc1OC (stereo not given in full) | > 100 | > 100
2 | O=C(Nc1ccc(OCc2ccc(Cl)cc2)cc1)Nc1ccc(Cl)c(C(F)(F)F)c1 | 2.48 | 8.91
3 | C[C@H]1[C@H](C)CC[C@]2(COC(=O)CCC(=O)NCC#CCN3CCNCC3)CC[C@]3(C)C(=CC[C@@H]4[C@@]5(C)CCCNC(C)(C)[C@@H]5CC[C@]43C)[C@H]12 | 15.5 | 28.8
4 | COc1cc(C2C(C(=O)OCc3ccccc3)=C(C)Nc3nc4ccccc4n32)cc(OC)c1OC (stereo not given) | 4.94 | 59
5 | Cn1cc(-c2nc(N)nnc2-c2c[nH]c3ccc(F)cc23)c2cc(Br)cnc21 | 0.305 | 16.2
